Measurements reported in article PMC6919601, “Identification of Plasmodium dipeptidyl aminopeptidase allosteric inhibitors by high throughput screening” (PLoS ONE, 2019).
Out of some 110,000 compounds screened, about 230 (0.21%) showed an effect of 50% or more. This is one part of the list.
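Further: 30 min substrate incubation versus DMSO and 10 µM JCP410 controls.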

The molecules below were run against DPAP1 (Plasmodium falciparum, UniProt Q8IIJ9) (assay: primary screen, percent inhibition; read by cleavage of a fluorogenic dipeptide substrate; higher = more effect of the substance).
DPAP1, sequence (Q8IIJ9 whole entry, looked up): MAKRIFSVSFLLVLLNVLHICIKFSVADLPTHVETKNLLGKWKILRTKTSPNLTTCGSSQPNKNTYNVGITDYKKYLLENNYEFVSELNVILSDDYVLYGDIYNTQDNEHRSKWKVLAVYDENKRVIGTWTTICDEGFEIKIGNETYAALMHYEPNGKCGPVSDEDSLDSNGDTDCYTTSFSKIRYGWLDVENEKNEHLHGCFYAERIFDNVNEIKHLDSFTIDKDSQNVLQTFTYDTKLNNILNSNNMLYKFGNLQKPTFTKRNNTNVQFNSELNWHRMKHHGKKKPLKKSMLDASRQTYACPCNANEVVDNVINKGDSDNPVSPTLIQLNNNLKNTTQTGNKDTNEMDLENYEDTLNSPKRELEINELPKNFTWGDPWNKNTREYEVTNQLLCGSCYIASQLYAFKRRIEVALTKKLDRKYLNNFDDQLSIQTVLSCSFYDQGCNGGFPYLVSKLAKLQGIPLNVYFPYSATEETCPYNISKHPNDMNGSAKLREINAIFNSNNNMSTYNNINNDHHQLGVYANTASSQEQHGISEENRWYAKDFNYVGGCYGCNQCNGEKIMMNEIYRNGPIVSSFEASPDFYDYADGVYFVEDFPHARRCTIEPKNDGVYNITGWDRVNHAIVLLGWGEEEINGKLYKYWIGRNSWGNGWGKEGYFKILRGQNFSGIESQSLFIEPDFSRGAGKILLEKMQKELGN
Set-up: species or system P. falciparum D10 trophozoite lysates; single well
`COc1ccc(Cl)cc1NC(=O)CCN1CCN(c2ccccc2C)CC1` was tested, and the “% Inhibition @ 10 uM” value was 1.62%.
In the case of `COc1ccc(C)c(N2C(=O)CC(N3CCN(c4ccc(F)cc4)CC3)C2=O)c1` (stereo not drawn), the “% Inhibition @ 10 uM” value is reported as -6.05%.
With `CCN(CC)C(=O)CN(c1ccccc1)S(=O)(=O)c1ccc(C)cc1` the “% Inhibition @ 10 uM” value was -0.796%.
In the case of `Nn1c(SCC(=O)O)nnc1-c1ccncc1`, the “% Inhibition @ 10 uM” value is reported as -4.17%.
In the case of `O=C(CN1N=C(c2ccccc2)CCC1=O)NCCc1ccc(Cl)cc1`, the “% Inhibition @ 10 uM” value is reported as 0.514%.
In the case of `COCCOC(=O)c1cnc(Nc2nc3ccccc3o2)nc1C`, the “% Inhibition @ 10 uM” value is reported as 3.36%.
In the case of `COC(=O)c1cn(CCc2c[nH]c3ccc(OC)cc23)cc(C(=O)OC)c1=O`, the “% Inhibition @ 10 uM” value is reported as 3.47%.
With `COc1ccc(Br)cc1/C=c1\sc2nc(-c3cccs3)nn2c1=O` the “% Inhibition @ 10 uM” value was 3.54%.
With `CCOc1cc(C(=O)NC2CCCCCC2)cc(OCC)c1OCC` the “% Inhibition @ 10 uM” value was -2.37%.
`O=C1C2C(c3ccccc3)N(CN3C(c4ccccc4)C1C3c1ccccc1)C2c1ccccc1` (stereo not drawn) was tested, and the “% Inhibition @ 10 uM” value was 0.716%.
In the case of `COc1cc(C2C3CN(C)CC=C3C(C#N)=C(N)C2(C#N)C#N)ccc1OCc1ccccc1` (stereo not drawn), the “% Inhibition @ 10 uM” value is reported as 2.19%.
For `CNS(=O)(=O)c1ccc(NC(=O)c2ccc(Cl)cc2Cl)cc1`, the “% Inhibition @ 10 uM” value was -2.83%.
In the case of `COc1ccc(N2CCN(C(=O)c3cc4nc(C(F)F)cc(C(F)F)n4n3)CC2)cc1`, the “% Inhibition @ 10 uM” value is reported as -3.71%.
In the case of `O=C(O)CCn1c(=O)c2cc3c(=O)n(CCC(=O)O)c(=O)c3cc2c1=O`, the “% Inhibition @ 10 uM” value is reported as 12%.
With `Cc1ccccc1NS(=O)(=O)c1cccc(C(=O)Nc2ccccc2[N+](=O)[O-])c1` the “% Inhibition @ 10 uM” value was 4.82%.
In the case of `CCOc1cc2c(cc1OCC)C(c1ccccc1OCC)NCC2` (stereo not drawn), the “% Inhibition @ 10 uM” value is reported as 3.57%.
In the case of `c1cncc(CNC2Cc3ccccc3C2)c1`, the “% Inhibition @ 10 uM” value is reported as -1.81%.
For `Cc1ccccc1Cn1c(C(=O)O)c(CNCCN(C)C2CCCCC2)c2ccccc21`, the “% Inhibition @ 10 uM” value was -1.44%.
With `CCOC(=O)N1CCN(C2CCCCCCC2)CC1` the “% Inhibition @ 10 uM” value was 3.48%.
With `CC(CNC(=O)CCn1c(=O)c2cccn2c2cccnc21)c1ccccc1` (stereo not drawn) the “% Inhibition @ 10 uM” value was 3.1%.
In the case of `CCOc1ccc2nc(NC(=O)c3ccc(OCC)c(Br)c3)sc2c1`, the “% Inhibition @ 10 uM” value is reported as 6.11%.
For `O=C(Cc1ccc(Cl)cc1)n1cc(Cl)cn1`, the “% Inhibition @ 10 uM” value was -2.26%.
With `Cc1ccc(C2CC(C(F)F)n3ncc(C(=O)Nc4cnn(Cc5ccccc5C)c4)c3N2)cc1` (stereo not drawn) the “% Inhibition @ 10 uM” value was 1.34%.
With `COc1ccc(CNC(=O)CCCn2nc(C)c3c(C)n(-c4ccc(C)cc4)nc3c2=O)cc1` the “% Inhibition @ 10 uM” value was -4.19%.
For `c1cc2c[nH]nc2cc1NC1CCCCCC1`, the “% Inhibition @ 10 uM” value was -1.56%.
For `Cc1cc(C)n2nc(CNS(=O)(=O)c3ccc(CC(C)C)cc3)nc2n1`, the “% Inhibition @ 10 uM” value was -2.17%.
With `O=C1CC(N2CCN(Cc3ccc4c(c3)OCO4)CC2)C(=O)N1c1ccccc1` (stereo not drawn) the “% Inhibition @ 10 uM” value was -4.31%.
`COCCN1C(=O)/C(=C/c2ccc(N3CCOCC3)c(F)c2)S/C1=N\c1ccccc1` was tested, and the “% Inhibition @ 10 uM” value was -8.09%.
With `Cc1ccc(C)n1-c1n[nH]c(S)n1` the “% Inhibition @ 10 uM” value was 34.5%.
In the case of `Cc1c(Cl)cccc1NC(=O)c1ccc([N+](=O)[O-])cc1`, the “% Inhibition @ 10 uM” value is reported as 1.35%.
`Cc1ccc(S(=O)(=O)N(CC(=O)Nc2cccnc2)c2ccc(C)c(Cl)c2)cc1` was tested, and the “% Inhibition @ 10 uM” value was -1.33%.
`Cc1ccc(C2=N/C(=C/N3CCOCC3)C(=O)O2)cc1` was tested, and the “% Inhibition @ 10 uM” value was 1.78%.
For `CCCC1C(=O)CC(C#N)(C#N)C(C#N)(C#N)C1c1ccccc1` (stereo not drawn), the “% Inhibition @ 10 uM” value was -3.04%.
`CC(C)SCCCCOc1ccc([N+](=O)[O-])cc1` was tested, and the “% Inhibition @ 10 uM” value was 0.634%.
For `CCOc1cc(C2C(C(=O)OC)=CN(C)C=C2C(=O)OC)cc(Br)c1OCC`, the “% Inhibition @ 10 uM” value was -1.48%.
For `CC1CC(C)(C)NC(=S)N1CC(=O)NCCc1ccc(S(N)(=O)=O)cc1` (stereo not drawn), the “% Inhibition @ 10 uM” value was -0.631%.
`CN(C(=O)Nc1noc2c1COc1ccccc1-2)C1CCCCC1` was tested, and the “% Inhibition @ 10 uM” value was 3.04%.
For `Cc1cc(C)c2sc(N(CCCN(C)C)C(=O)c3ccco3)nc2c1`, the “% Inhibition @ 10 uM” value was 2.99%.
With `N=C1/C(=C/c2cn(Cc3ccc4c(c3)OCO4)c3ccccc23)C(=O)N=C2SC=CN12` the “% Inhibition @ 10 uM” value was -1.17%.
With `OC1=C2C(=Nc3nc4ccccc4n3C2c2cc(Br)ccc2F)CCC1` (stereo not drawn) the “% Inhibition @ 10 uM” value was 0.0842%.
In the case of `CCCCN(CCNc1ncnc2onc(C)c12)Cc1ccco1`, the “% Inhibition @ 10 uM” value is reported as 4.58%.
For `CN(C)c1cc(NCc2ccccc2)c([N+](=O)[O-])c2nonc12`, the “% Inhibition @ 10 uM” value was 1.04%.
With `CCCc1cc(O)n2nc(NCc3ccc(F)cc3)nc2n1` the “% Inhibition @ 10 uM” value was 4.18%.
In the case of `CSc1ccc(C2C(C#N)=C(N)Oc3[nH]nc(C)c32)cc1` (stereo not drawn), the “% Inhibition @ 10 uM” value is reported as 0.673%.
In the case of `CCCC1=NN(c2nc3ccccc3s2)C(=O)/C1=C(/C)N1CCOCC1`, the “% Inhibition @ 10 uM” value is reported as 14.1%.
For `COc1cccc(-n2nnc(-c3nsc(NC(=O)c4cccs4)n3)c2C)c1`, the “% Inhibition @ 10 uM” value was -11.2%.
For `COC(=O)c1oc2ccccc2c1NC(=O)c1ccccc1`, the “% Inhibition @ 10 uM” value was 9.19%.
For `CC(C)C(Nc1ccc(C(F)(F)F)cc1[N+](=O)[O-])C(=O)O` (stereo not drawn), the “% Inhibition @ 10 uM” value was 1.21%.
With `Cc1ccc(-c2c(N3CCOCC3)c(=O)c2=O)cc1` the “% Inhibition @ 10 uM” value was -0.825%.
With `O=C(NC1CCCCC1)c1nnc(-c2cccc(Cl)c2)o1` the “% Inhibition @ 10 uM” value was -2.23%.
For `CCC(CC)=C(C#N)C(=O)NC1CCCCC1`, the “% Inhibition @ 10 uM” value was 2.68%.
`COc1ccc(CNC(=O)c2sc3nc(-c4cccs4)ccc3c2N)cc1OC` was tested, and the “% Inhibition @ 10 uM” value was 6.63%.
`O=c1oc2ccc(Br)cc2cc1-c1nc(-c2ccc([N+](=O)[O-])cc2)cs1` was tested, and the “% Inhibition @ 10 uM” value was -2.42%.
In the case of `O=C(O)c1ccc(-c2nc3cc(Cl)c(F)cc3[nH]2)cc1`, the “% Inhibition @ 10 uM” value is reported as 3.49%.
In the case of `O=C(O)c1cccc(NC(=O)c2ccc([N+](=O)[O-])cc2)c1`, the “% Inhibition @ 10 uM” value is reported as 1.54%.
In the case of `Cc1ccccc1CNC(=O)CN(c1ccc(F)cc1)S(=O)(=O)c1ccc2c(c1)OCCO2`, the “% Inhibition @ 10 uM” value is reported as 2.63%.
With `CCC(=O)n1nc(-c2ccccc2)nc1NCc1ccc(F)cc1` the “% Inhibition @ 10 uM” value was 7.02%.
With `O=C(NCc1ccco1)C1CCN(S(=O)(=O)c2ccc3[nH]c4c(c3c2)CCCCC4)CC1` the “% Inhibition @ 10 uM” value was 3.7%.
For `Cc1cc(C(=O)C(=O)NCc2ccco2)c(C)n1-c1cccc(Cl)c1`, the “% Inhibition @ 10 uM” value was 0.655%.
`CNC(=O)CCc1nc(-c2cccc(C)c2)no1` was tested, and the “% Inhibition @ 10 uM” value was -0.45%.
In the case of `O=C1C(=Cc2cccc3ccccc23)C(=O)c2ccccc21`, the “% Inhibition @ 10 uM” value is reported as -2.32%.
In the case of `CC(C)(C)C1CCC2(CC1)N=C(c1ccccc1)C(=S)N2` (stereo not drawn), the “% Inhibition @ 10 uM” value is reported as 0.559%.
With `Cc1c(Cl)cccc1NC(=O)c1ccco1` the “% Inhibition @ 10 uM” value was 3.25%.
